The source of these data is ChEMBL document CHEMBL4888484, “Replenishing the malaria drug discovery pipeline: Screening and hit evaluation of the MMV Hit Generation Library 1 (HGL1) against asexual blood stage Plasmodium falciparum ,using a nano luciferase reporter read-out” (2022).

In all, about 150,000 compounds went through this assay and about 540 (0.36%) showed an effect of 50% or more. The list shows a part of the results.

In general, % Inhibition refers to the drop in the measured response relative to a control, in per cent.

For the experiment, the system named is Plasmodium falciparum. The experiment is described as follows: Primary screen in NF54 nanoGlo assay, in single point, at 2uM, 72h; a lower Z score goes with more inhibition. The class given is functional, Erythrocyte. As to conditions: timepoint 72 hour.
With `OCC1(Nc2nc(C3CC3)ns2)CCCC1`, the “% Inhibition” value is given as -9% and the Z score is 1.37.
For `Cc1ccnc(NCCNC(=O)CCn2c(C)cc(C)nc2=O)c1`, the “% Inhibition” value is -13% and the Z score came out at 1.97.
As to `COc1ccc2c(c1)C[C@H](C(C)C)CN2C(=O)c1cnc(C(=O)O)cn1`, the “% Inhibition” value was -6% and the Z score is on record as 0.75.
As for `Cc1nc(-c2ccc(NCc3cc4ccccc4o3)nc2)[nH]c(=O)c1C`, the “% Inhibition” value came out at 30% and the Z score is listed as -4.36.
As to `Cc1nnc(NC(=O)CCCCc2nc3ccccc3s2)s1`, the “% Inhibition” value is -6% and the Z score is given as 0.72.
In the same order, the values of `COc1ccccc1-c1n[nH]c(C2CC2)c1NC(=O)CC(C)C` are -14% and 1.4.
On to `COCC1(C(=O)N(C)Cc2nncn2C)CCC1`, for which the “% Inhibition” value is on record as -19% and the Z score was 2.41.
Taken in the same sequence, the figures for `CC(C)c1nn(C)cc1NS(=O)(=O)CCCC(F)(F)F` were 33% and -4.51.
As to `COc1cc2c(cc1OC)C(=O)N1C[C@H](N(C)C)C[C@H]1C(=O)N2`, the “% Inhibition” value is recorded as -9% and the Z score came to 1.07.
In the same order, the values of `CCNC(=O)Nc1cc(S(=O)(=O)N(CC)CC)ccc1Cl` are 5% and -0.97.
As for `O=C1C(N2CC(O)C(O)C2)CCCN1CC(F)(F)F` (stereo not given), the “% Inhibition” value is given as -10% and the Z score was 1.45.
As to `COc1ccccc1NC(=O)c1ccc2c(N(C)C)ncnc2c1`, the “% Inhibition” value is recorded as 3% and the Z score is -0.38.
Taken in the same sequence, the figures for `CCc1cc(N2CC[C@](COC)(C(=O)O)C2)nc(C)n1` were -8% and 0.98.
In the same order, the values of `O=C(NCc1ccc(F)cc1)c1nc(O)c2nnn(C[C@H]3CCCO3)c2n1` are -4% and 0.48.
Taken in the same sequence, the figures for `O=C(CC1CCCC1)NCc1ccccc1Cl` were -11% and 1.84.
In the case of `Cn1c(-c2ccc(-n3ccnc3)nn2)cc2ccccc21`, the “% Inhibition” value is 3% and the Z score is on record as -0.27.
In the same order, the values of `C[C@H]1CS(=O)(=O)CCN1Cc1cnc(C(F)(F)F)s1` are -5% and 0.8.
For `CC(C)(C)c1oc(C(N)=O)cc1CN1C(=O)CC2(CCCC2)CC1=O`, the “% Inhibition” value is -5% and the Z score was 0.94.
On to `CC(C)(C)c1ccc(C(=O)c2c[nH]c(C(=O)NCc3ccco3)c2)cc1`, for which the “% Inhibition” value worked out at 29% and the Z score is recorded as -3.69.
`CC(C)CC[C@](C)(O)CNC(=O)C1CC=CC1`: the “% Inhibition” value is -6% and the Z score turned out to be 1.16.
Taken in the same sequence, the figures for `Cn1ccc(=O)n(CC(=O)c2ccc(N3CCCC3=O)cc2)c1=O` were 1% and -0.09.
Turning to `CC1(C)[C@H]2CC=C(CCNC(=O)CCO)[C@@H]1C2`, the “% Inhibition” value is listed as -11% and the Z score is listed as 1.69.
In the same order, the values of `Nc1nonc1C(=O)N1CCN(C(=O)c2ccccc2Cl)CC1` are -16% and 3.17.
In the same order, the values of `CCC=C(C)C(=O)NCc1ccc(OC)c(OC)c1` are 11% and -1.46.
In the case of `Cc1ccc(CCNC(=O)c2sc3ncnc(N4CCCC4)c3c2C)cc1`, the “% Inhibition” value is on record as -13% and the Z score amounted to 1.18.
